This is one part of the list. The list includes weakly bound sequences.

The experiment deals with MaxL homodimer (UniProt P61244). The experiment is described as follows: universal protein-binding microarray (PBM). The note with it: PBS-based mixture, 10 nM His-tagged protein dimer, 2% milk, 200 ng/uL BSA, 50 ng/uL salmon testes DNA, 0.02% TX-100; detection with Alexa 488 anti-His …; high values mean tight binding; most listed sequences are background and not binding sites; double strand, one strand shown.
Sequence of UniProt P61244 (P61244 whole entry): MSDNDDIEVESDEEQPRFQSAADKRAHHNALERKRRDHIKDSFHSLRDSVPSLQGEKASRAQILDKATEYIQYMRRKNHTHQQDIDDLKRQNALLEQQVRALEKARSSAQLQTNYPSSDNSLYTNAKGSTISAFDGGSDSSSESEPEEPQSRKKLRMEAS
For the sequence TATGCCAA, the binding signal (normalized occupancy) is 0.077.

For the sequence ACGTATTG, the binding signal (normalized occupancy) was 0.0779.

In the case of CCTATTGC, the binding signal (normalized occupancy) turned out to be 0.0731.

As to CCGCTATC, the binding signal (normalized occupancy) is 0.0727.

With CGGAGCCA, the binding signal (normalized occupancy) worked out at 0.0696.

Take GACAGGCA: the binding signal (normalized occupancy) came to 0.0734.

For CGCACTCC, the binding signal (normalized occupancy) was 0.0746.

On to ACGGCGGA, for which the binding signal (normalized occupancy) was 0.0709.

In the case of ATTATCGC, the binding signal (normalized occupancy) turned out to be 0.0731.

Turning to GCAGCGCA, the binding signal (normalized occupancy) worked out at 0.0697.

For CATTTGAC, the binding signal (normalized occupancy) was 0.076.

Turning to ATAACCGG, the binding signal (normalized occupancy) was 0.0746.

For the sequence CCCGCAAG, the binding signal (normalized occupancy) came to 0.0687.

With CAGTCAGC, the binding signal (normalized occupancy) turned out to be 0.0721.

As for ATAATTCG, the binding signal (normalized occupancy) was 0.0765.

As for CAGTATTA, the binding signal (normalized occupancy) came to 0.0819.

Regarding ATAGAGGC, the binding signal (normalized occupancy) worked out at 0.075.

For CGAGGTTC, the binding signal (normalized occupancy) is 0.0748.

As for ACCAGATA, the binding signal (normalized occupancy) worked out at 0.0849.

As for ATGGTACC, the binding signal (normalized occupancy) came to 0.0782.

For the sequence CTCGCGTA, the binding signal (normalized occupancy) turned out to be 0.0788.

As for CAGGTGTC, the binding signal (normalized occupancy) was determined as 0.0839.

For the sequence GCGAATTA, the binding signal (normalized occupancy) turned out to be 0.0749.

As to AGATCTCG, the binding signal (normalized occupancy) was 0.0813.

On to CGATAACA, for which the binding signal (normalized occupancy) was determined as 0.0816.

As for AGAGGCGG, the binding signal (normalized occupancy) turned out to be 0.0671.

Turning to GGCCATAC, the binding signal (normalized occupancy) turned out to be 0.0792.

In the case of AGTGGTTA, the binding signal (normalized occupancy) was 0.0793.

For ATTGTACA, the binding signal (normalized occupancy) stood at 0.0858.

As to CAGGTAGA, the binding signal (normalized occupancy) was 0.0758.

On to AACCAGTT, for which the binding signal (normalized occupancy) turned out to be 0.0664.

Consider CCCCGCAG, for which the binding signal (normalized occupancy) was determined as 0.072.

For ACTCGTAC, the binding signal (normalized occupancy) turned out to be 0.0749.

As to AATAACTC, the binding signal (normalized occupancy) was 0.0816.

For CCCTCGAC, the binding signal (normalized occupancy) was determined as 0.0726.

For GGTTTCAA, the binding signal (normalized occupancy) stood at 0.0726.

On to TAAAGGGA, for which the binding signal (normalized occupancy) was 0.0701.

As for CTACAATA, the binding signal (normalized occupancy) is 0.0785.

With CTACTAAC, the binding signal (normalized occupancy) came to 0.0757.

Consider TCCTACAA, for which the binding signal (normalized occupancy) amounted to 0.0745.

Turning to GATTTAGA, the binding signal (normalized occupancy) turned out to be 0.0724.

In the case of TGATGACA, the binding signal (normalized occupancy) turned out to be 0.0816.

With TTACCGAA, the binding signal (normalized occupancy) came to 0.0761.

For ACGCTAGA, the binding signal (normalized occupancy) came out at 0.081.

In the case of GCAACTAC, the binding signal (normalized occupancy) was found to be 0.0715.

As for GTGGACTA, the binding signal (normalized occupancy) amounted to 0.0767.

As to CCTATGAA, the binding signal (normalized occupancy) came out at 0.0799.

For TGTCCACA, the binding signal (normalized occupancy) worked out at 0.0864.

ACCGCCAA: the binding signal (normalized occupancy) was 0.0725.

With GTCAGAGA, the binding signal (normalized occupancy) is 0.073.

With ACCTGAAC, the binding signal (normalized occupancy) turned out to be 0.0772.

With CAGATTGC, the binding signal (normalized occupancy) amounted to 0.0722.

Take ATATATTC: the binding signal (normalized occupancy) was found to be 0.0816.

Regarding ACCTTCAC, the binding signal (normalized occupancy) worked out at 0.0808.

As to GGCTTACC, the binding signal (normalized occupancy) is 0.07.

For the sequence ATGGATTC, the binding signal (normalized occupancy) worked out at 0.0845.

In the case of CCTCGTCG, the binding signal (normalized occupancy) is 0.0697.

As to CATTGGTA, the binding signal (normalized occupancy) amounted to 0.0757.

Regarding CGGTCTGC, the binding signal (normalized occupancy) was found to be 0.0748.

For the sequence GCACGTGC, the binding signal (normalized occupancy) was 0.834.

For the sequence CGAGGCCG, the binding signal (normalized occupancy) turned out to be 0.0716.

In the case of GCGTTAAC, the binding signal (normalized occupancy) was 0.0794.

AGGCCGAA: the binding signal (normalized occupancy) stood at 0.0669.

With CCTTCACG, the binding signal (normalized occupancy) came to 0.0942.

For the sequence CCAATCAG, the binding signal (normalized occupancy) was 0.0709.

For CATTAGCC, the binding signal (normalized occupancy) was determined as 0.0772.

Take ATTGTGCA: the binding signal (normalized occupancy) stood at 0.0762.

Turning to GACCCGTA, the binding signal (normalized occupancy) is 0.0742.

In the case of CAGACCTC, the binding signal (normalized occupancy) was determined as 0.0736.

On to AGGTGACG, for which the binding signal (normalized occupancy) worked out at 0.075.

For CCGTTACC, the binding signal (normalized occupancy) stood at 0.0769.

Consider CGTTTCGC, for which the binding signal (normalized occupancy) was 0.0696.

Turning to ACCACTTG, the binding signal (normalized occupancy) is 0.0746.

In the case of AGTCCCCG, the binding signal (normalized occupancy) is 0.0708.

On to CATACTAG, for which the binding signal (normalized occupancy) amounted to 0.0857.

GCGTTCGA: the binding signal (normalized occupancy) came to 0.0731.

On to GCTATTCC, for which the binding signal (normalized occupancy) was 0.0715.

On to AGGATAAC, for which the binding signal (normalized occupancy) was 0.087.

As to AATCCATC, the binding signal (normalized occupancy) came out at 0.0845.

Turning to AACGCCCA, the binding signal (normalized occupancy) turned out to be 0.0768.

With CATTTAGG, the binding signal (normalized occupancy) was found to be 0.077.

Take TATACAAA: the binding signal (normalized occupancy) stood at 0.0773.

On to CCAACGCG, for which the binding signal (normalized occupancy) was 0.0822.

As for AAGCACAA, the binding signal (normalized occupancy) stood at 0.0749.

Turning to CTCGACAG, the binding signal (normalized occupancy) worked out at 0.0706.

Take AGGCAATA: the binding signal (normalized occupancy) was 0.0822.

As for AACCTGCC, the binding signal (normalized occupancy) is 0.0751.

ATGGCCGA: the binding signal (normalized occupancy) was determined as 0.0733.

As for CGTTTTAC, the binding signal (normalized occupancy) was determined as 0.0742.

TGTACGAA: the binding signal (normalized occupancy) was determined as 0.0781.

Consider ACCCTAAC, for which the binding signal (normalized occupancy) amounted to 0.0759.

GTGATCGA: the binding signal (normalized occupancy) is 0.0805.

Regarding CCGATCGA, the binding signal (normalized occupancy) worked out at 0.0697.

With ACAAGATA, the binding signal (normalized occupancy) came to 0.0784.

For the sequence AAATCGTG, the binding signal (normalized occupancy) turned out to be 0.0794.

For the sequence ATTACGTC, the binding signal (normalized occupancy) was 0.0787.

For the sequence AAAAGATC, the binding signal (normalized occupancy) was found to be 0.0769.

As to GACCGACC, the binding signal (normalized occupancy) is 0.0733.

Turning to ATGACCCA, the binding signal (normalized occupancy) came to 0.0834.

TAATTCAA: the binding signal (normalized occupancy) turned out to be 0.0795.

CTCAACCA: the binding signal (normalized occupancy) is 0.0735.

Regarding ACACGCGC, the binding signal (normalized occupancy) amounted to 0.112.

On to AAACCTAG, for which the binding signal (normalized occupancy) worked out at 0.0657.

Consider GAGCACCA, for which the binding signal (normalized occupancy) was found to be 0.0776.

For the sequence CGGAGCCG, the binding signal (normalized occupancy) came out at 0.0643.

In the case of GCACACGC, the binding signal (normalized occupancy) was 0.1.

Regarding AACAGAGG, the binding signal (normalized occupancy) was found to be 0.0695.

For the sequence CTAACCTA, the binding signal (normalized occupancy) is 0.0783.

As for GCTTTCAA, the binding signal (normalized occupancy) amounted to 0.0728.

The record behind these values is publication PMC4242493.
